# Experimental data from PubChem BioAssay AID485344 (National Center for Advancing Translational Sciences (NCATS), 2010).
# The whole screen tested about 340,000 compounds, of which about 6,900 (2%) were called active. Rule as the data show it: active = inhibition above about 30%; inactive = below that, where a call was filed. The entries are a selection whose mix differs from that of the whole data set. The source gives no active or inactive call for entries shown without one.
# Molecular target: D(2) dopamine receptor (Homo sapiens) (UniProt P14416)
# Chain of UniProt P14416 (P14416 whole entry, looked up): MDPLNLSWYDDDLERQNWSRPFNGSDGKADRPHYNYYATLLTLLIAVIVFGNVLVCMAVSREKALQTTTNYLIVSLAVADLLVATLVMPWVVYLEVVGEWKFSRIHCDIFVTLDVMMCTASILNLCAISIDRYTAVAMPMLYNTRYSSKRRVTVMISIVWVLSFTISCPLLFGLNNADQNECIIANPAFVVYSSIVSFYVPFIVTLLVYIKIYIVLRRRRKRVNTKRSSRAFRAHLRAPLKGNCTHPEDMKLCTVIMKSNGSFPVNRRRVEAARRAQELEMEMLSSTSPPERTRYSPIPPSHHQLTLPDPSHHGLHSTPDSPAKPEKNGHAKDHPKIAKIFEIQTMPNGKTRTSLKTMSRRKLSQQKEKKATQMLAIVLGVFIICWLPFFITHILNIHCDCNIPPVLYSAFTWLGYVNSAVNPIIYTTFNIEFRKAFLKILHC
# Assay: HTS Assay for Allosteric Antagonists of the Human D2 Dopamine Receptor: Primary Screen for Antagonists; also: 0% is about no effect
# Settings: HEK293 TREx D2 cells, calcium flux, dopamine EC80; at 10 µM; stronger effect = higher value
# Method in brief: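 Measurement of antagonist activity uses fluorescent calcium dye in inducible HEK293 T-REx D2 cells: 10 s baseline, compound addition with 180 s read, EC80 dopamine addition with a further 180 s read.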
row,SMILES,inhibition
1,CCn1cc(S(=O)(=O)c2ccccc2)c(=O)c2cc(C)ccc21,-7.16%
2,CCOC(=O)c1[nH]c2ccccc2c1NC(=O)c1ccc(OC(C)C)cc1,-1.15%
3,COc1cc(OC)cc(C(=O)Nc2ccc(S(=O)(=O)Nc3cc(C)nc(C)n3)cc2)c1,-23.5%
4,CCOC(=O)c1ccc(N2C(=O)c3n[nH]c(-c4cccs4)c3C2c2ccc(C)cc2)cc1 (stereo unspecified),-1.11%
5,CCCN(CCC)CCCNC(=O)Cn1ncc2c3ccccc3n(Cc3ccc(F)cc3)c2c1=O,-0.115%
6,CCCCOc1cccc(C(=O)Nc2cc3nn(-c4ccc(F)cc4)nc3cc2C)c1,8.46%
7,CC(C)(C)c1ccc(-c2noc(CCC(=O)Nc3cccnc3)n2)cc1,active: 35.8%
8,Cc1nc(C)c(-c2ccc(SCC(=O)Nc3ccccc3F)nn2)s1,1.06%
9,COc1cccc(CNC(=O)CCNS(=O)(=O)c2cccc3nsnc23)c1,-8.25%
10,Cc1cc2ccccc2n1-c1ccc(C(=O)N2CCCCC2)s1,-11.4%
11,Cc1ccccc1NC(=O)c1sc2nc(-c3ccncc3)ccc2c1N,-6.56%
12,Brc1ccc(-c2cc3c(N4CCN(c5ccccc5)CC4)nccn3n2)cc1,20.8%
13,O=C(CC1C(=O)N(c2ccc(F)cc2)C(=O)N1Cc1cccnc1)Nc1ccc(F)cc1 (stereo unspecified),-4.64%
14,COc1ccc(CC(=O)Nc2c(C(=O)Nc3ccccc3F)oc3ccccc23)cc1,-17%
15,COc1ccc(NC(=O)CC2C(=O)N(c3ccc(C)cc3)C(=O)N2CCc2ccccc2)cc1 (stereo unspecified),4.54%
16,CC(=O)Nc1ccc(/C=N/NC(=O)CCN2CCN(c3ccccc3)CC2)cc1,active: 51.4%
17,CC(=O)Cn1nnc2sc(-c3ccccc3)cc2c1=O,-15.4%
18,Cc1c(Cl)cccc1Nc1sc(C(=O)c2ccccc2)c(N)c1S(=O)(=O)c1ccccc1,-18.6%
19,COCCNC(=O)c1cc2n(n1)CCCN(Cc1ccc(C)cc1)C2=O,3.98%
20,CCOC(=O)N1CCc2c(sc3c2c(=O)n(Cc2ccccc2)c(=O)n3Cc2c(F)cccc2Cl)C1,9.63%
21,CN(Cc1ccccc1)C(=O)c1cc2c(=O)n(C)c3ccccc3c2s1,15.4%

row,SMILES,inhibition
1,O=C1CC(c2nc3ccccc3n2Cc2c(F)cccc2Cl)CN1c1cccc(C(F)(F)F)c1 (stereo unspecified),-5.57%
2,CSc1cccc(N2C(=O)N(Cc3ccc([N+](=O)[O-])cc3)c3ccccc3S2(=O)=O)c1,-19.3%
3,Cc1ccc(S(=O)(=O)N2CCCC(c3nc4c(nnn4Cc4ccc(OC(F)(F)F)cc4)c(=O)[nH]3)C2)cc1 (stereo unspecified),3.59%
4,CCOC(=O)c1ccc2c(c1)N(Cc1cccc([N+](=O)[O-])c1)C(=O)c1ccccc1S2,13.2%
5,O=C(Cn1c(=O)nc(-c2ccccc2)c2cc(Cl)ccc21)NCc1ccccc1,5.44%
6,Cn1nc(-c2ccc(OCC(=O)Nc3ccccc3)cc2)c2ccccc2c1=O,-3.18%
7,COc1ccc(-c2ccc(NS(=O)(=O)c3ccc(F)c(C(F)(F)F)c3)cc2)nn1,-7.17%
8,Cc1ccc(CN2CCCn3nc(C(=O)NCCN(C)C)cc3C2=O)cc1,3.19%
9,COC(=O)c1c(NC(=O)CCCOc2ccc(C)cc2)sc2c1C(C(=O)OC)CC2 (stereo unspecified),-12.1%
10,CCc1cccc(CC)c1NC(=O)c1cc(S(=O)(=O)N2CCc3ccccc32)cn1C,-21.3%
11,Cc1ccc(C)c(OCCSc2nc3ccccc3n2CC(=O)N2CCOCC2)c1,4.96%
12,CCOC(=O)c1c(C)[nH]c(C)c1S(=O)(=O)N1CCC(C(=O)NCc2ccccc2)CC1,7.01%
13,COc1ccc(NC(=O)Cc2coc3cc(C)cc(C)c23)c(OC)c1,4.91%
14,Cc1nc2ccn(Cc3ccco3)c(=O)c2cc1C(=O)N1CCN(c2ccccc2F)CC1,0.323%
15,COc1ccc2c(c1)c1c(c(=O)n(Cc3ccccc3)c(=O)n1Cc1cc(C)ccc1C)n2C,-3.28%
16,Cc1nn2c(=O)cc(COC(=O)c3ccccc3NC(=O)c3ccccc3C)nc2s1,-5.92%
17,COc1cccc(OCc2nc3ccccc3n2CCOc2ccccc2)c1,-2.78%
18,COc1ccc(/C=N/NC(=O)C(=O)NCc2cccnc2)cc1OC,active: 32.7%
19,CN(C(=O)c1nn(C)c2c1COc1ccccc1-2)c1cccc(C(F)(F)F)c1,14.7%
20,CCC(C)NC(=O)c1ccc2c(c1)N(Cc1cccc(Cl)c1)C(=O)c1ccccc1S2=O (stereo unspecified),-7.49%
21,COCCNC(=O)c1c(NC(=O)Cc2coc3cc(C)ccc23)sc2c1CCCC2,-18.2%

row,SMILES,inhibition
1,O=C(CN(c1cccc(Br)c1)S(=O)(=O)c1ccccc1)N1CCc2ccccc2C1,15.2%
2,COc1ccc(N2CCN(c3nc(-c4ccccc4F)nc4ccccc34)CC2)cc1,13.6%
3,COc1ccc(N2CCN(CCCNC(=O)c3cnn(-c4ccc(F)cc4)c3-n3cccc3)CC2)cc1,4.1%
4,Cc1cc(NC(=O)C2CCN(S(=O)(=O)Cc3ccccc3)CC2)ccc1-n1cnnn1,active: 30.4%
5,CCOC(=O)c1cn(CC(=O)Nc2cccc(Cl)c2C)nn1,2%
6,CCOc1ccccc1NC(=O)C(NS(=O)(=O)c1cccc2nsnc12)c1ccccc1 (stereo unspecified),2.47%
7,Cc1nnc(N2CCN(c3ccccc3F)CC2)c2c1nnn2Cc1ccc(F)cc1,13.6%
8,CCC(CC)c1nn2c(=O)cc(COc3ccc(NC(=O)c4ccc(Cl)cc4)cc3)nc2s1,-4.59%
9,CC(Sc1oc(-c2ccco2)nc1S(=O)(=O)c1ccc(Br)cc1)c1ccccc1 (stereo unspecified),9.28%
10,COCCNc1nc(NCc2ccccc2OC)c2cnn(C)c2n1,-13.1%
11,CCN(CC)C(=O)COc1ccc2oc(C)c(C(=O)OC(C)C)c2c1,active: 30.8%
12,CCc1ccccc1N(CC)C(=O)c1cc2c(s1)-c1ccccc1OC2,-5.5%
13,COc1ccc(OC)c(CCNC(=O)c2ccc(CS(=O)Cc3cccc(Cl)c3)o2)c1 (stereo unspecified),-2.42%
14,Cc1ccccc1CSc1nc2nc(C)c(Cc3ccccc3)c(C)n2n1,-17%
15,CCc1ccc(-n2nc(CO)c(C(=O)NCc3ccccn3)n2)cc1,-0.634%
16,Cc1nc(-c2ccccc2)sc1-c1ccc(SCC(=O)Nc2ccc(F)cc2F)nn1,7.89%
17,Cc1oc2ncnc(N3CCCCC3)c2c1C(=O)NCC1CCN(Cc2ccc(F)cc2)CC1,-0.243%
18,N#Cc1ccc(OCC(=O)NC(=O)NC2CCS(=O)(=O)C2)cc1 (stereo unspecified),active: 39.2%
19,CCOC(=O)Cn1c(=O)cc(-c2ccccc2)c2c(C)nn(C)c21,-6.04%
